# From the supplement of paper PMC8728848
# The list shows a part of the results.
# Key:
# Assay in all cases: glycan array binding signal (z-score within array); higher = stronger binding
# Settings in all cases: glycan notation: IUPAC condensed, linker removed
# [1] = biological target: Neu5Ac(a2-6)GlcNAc(b1-4)GlcNAc(b1-4)GlcNAc
# Summary of the method: (§1)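 Negative Z-scores can be read as non-binding. The Z-score is calculated within each array and then averaged across arrays of one protein sequence at different concentrations or buffers and across linkers. Arrays, 3228 in all, were curated from the Consortium for Functional Glycomics database and kept only where the protein sequence was available.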
# Neu5Ac(a2-8)Neu5Ac = biological target: Neu5Ac(a2-8)Neu5Ac
# Summary of the method: as §1
# [2] = biological target: Neu5Ac(a2-8)Neu5Ac(a2-3)Gal(b1-3)GalNAc(b1-4)[Neu5Ac(a2-3)]Gal(b1-4)Glc
# Summary of the method: as §1
# [3] = biological target: Neu5Ac(a2-8)Neu5Ac(a2-3)Gal(b1-3)GalNAc(b1-4)[Neu5Ac(a2-8)Neu5Ac(a2-3)]Gal(b1-4)Glc
# Summary of the method: as §1
# [4] = biological target: Neu5Ac(a2-8)Neu5Ac(a2-3)Gal(b1-4)Glc
# Summary of the method: as §1
# [5] = biological target: Neu5Ac(a2-8)Neu5Ac(a2-3)Gal(b1-4)GlcNAc
# Summary of the method: as §1
# [6] = biological target: Neu5Ac(a2-8)Neu5Ac(a2-3)[Gal(b1-3)GalNAc(b1-4)]Gal(b1-4)Glc
# Summary of the method: as §1
# [7] = biological target: Neu5Ac(a2-8)Neu5Ac(a2-3)[GalNAc(b1-4)]Gal(b1-4)Glc
# Summary of the method: as §1
# [8] = biological target: Neu5Ac(a2-8)Neu5Ac(a2-8)Neu5Ac
# Summary of the method: as §1
# [9] = biological target: Neu5Ac(a2-8)Neu5Ac(a2-8)Neu5Ac(a2-3)Gal(b1-4)Glc
# Summary of the method: as §1
# [10] = biological target: Neu5Ac(a2-8)Neu5Ac(a2-8)Neu5Ac(a2-3)[Gal(b1-3)GalNAc(b1-4)]Gal(b1-4)Glc
# Summary of the method: as §1
# [11] = biological target: Neu5Ac(a2-8)Neu5Ac(a2-8)Neu5Ac(a2-3)[GalNAc(b1-4)]Gal(b1-4)Glc
# Summary of the method: as §1
# [12] = biological target: Neu5Ac(a2-8)Neu5Ac(a2-8)Neu5Ac(a2-8)Neu5Ac(a2-3)[GalNAc(b1-4)]Gal(b1-4)Glc
# Summary of the method: as §1
# [13] = biological target: Neu5Ac(a2-8)Neu5Gc(a2-3)Gal(b1-4)GlcNAc
# Summary of the method: as §1
# [14] = biological target: Neu5Ac(b2-6)Gal(b1-4)GlcNAc
# Summary of the method: as §1
# Neu5Ac(b2-6)GalNAc = biological target: Neu5Ac(b2-6)GalNAc
# Summary of the method: as §1
# [15] = biological target: Neu5Ac9Ac(a2-3)Gal(b1-3)GlcNAc
# Summary of the method: as §1
# [16] = biological target: Neu5Ac9Ac(a2-3)Gal(b1-4)GlcNAc
# Summary of the method: as §1
# [17] = biological target: Neu5Ac9Ac(a2-6)Gal(b1-4)GlcNAc
# Summary of the method: as §1
# [18] = biological target: Neu5Gc(a2-3)Gal(b1-3)GlcNAc
# Summary of the method: as §1
# [19] = biological target: Neu5Gc(a2-3)Gal(b1-3)[Fuc(a1-4)]GlcNAc
# Summary of the method: as §1
# Neu5Gc(a2-3)Gal(b1-4)Glc = biological target: Neu5Gc(a2-3)Gal(b1-4)Glc
# Summary of the method: as §1
# [20] = biological target: Neu5Gc(a2-3)Gal(b1-4)GlcNAc
# Summary of the method: as §1
# [21] = biological target: Neu5Gc(a2-3)Gal(b1-4)GlcNAc(b1-3)Gal(b1-4)GlcNAc(b1-2)Man(a1-3)[Neu5Gc(a2-3)Gal(b1-4)GlcNAc(b1-3)Gal(b1-4)GlcNAc(b1-2)Man(a1-6)]Man(b1-4)GlcNAc(b1-4)GlcNAc
# Summary of the method: as §1
# [22] = biological target: Neu5Gc(a2-3)Gal(b1-4)[Fuc(a1-3)]GlcNAc
# Summary of the method: as §1
# [23] = biological target: Neu5Gc(a2-6)Gal(b1-4)GlcNAc
# Summary of the method: as §1
# Neu5Gc(a2-6)GalNAc = biological target: Neu5Gc(a2-6)GalNAc
# Summary of the method: as §1
# [24] = biological target: Neu5Gc(a2-8)Neu5Ac(a2-3)Gal(b1-4)GlcNAc
# Summary of the method: as §1
# [25] = biological target: Neu5Gc(a2-8)Neu5Gc(a2-3)Gal(b1-4)GlcNAc
# Summary of the method: as §1
# [26] = biological target: Neu5Gc(a2-8)Neu5Gc(a2-3)Gal(b1-4)GlcNAc(b1-3)Gal(b1-4)GlcNAc
# Summary of the method: as §1
# [27] = biological target: Neu5Gc(a2-8)Neu5Gc(a2-6)Gal(b1-4)GlcNAc
# Summary of the method: as §1
# [28] = biological target: Neu5Gc(b2-6)Gal(b1-4)GlcNAc
# Summary of the method: as §1
binder,measurement,setting,value
SAOUHSC 00176 (Staphylococcus aureus) (protein) MSKILKCITLAVVMLLIVTACGPNRSKEDIDKALNKDNSKDKPNQLTMWVDGDKQMAFYKKITDQYTKKTGIKVKLVNIGQNDQLENISLDAPAGKGPDIFFLAHDNTGSAYLQGLAAEIKLSKDELKGFNKQALKAMNYDNKQLALPAIVETTALFYNKKLVKNAPQTLEEVEANAAKLTDSKKKQYGMLFDAKNFYFNYPFLFGNDDYIFKKNGSEYDIHQLGLNSKHVVKNAERLQKWYDKGYLPKAATHDVMIGLFKEGKVGQFVTGPWNINEYQETFGKDLGVTTLPTDGGKPMKPFLGVRGWYLSEYSKHKYWAKDLMLYITSKDTLQKYTDEMSEITGRVDVKSSNPNLKVFEKQARHAEPMPNIPEMRQVWEPMGNASIFISNGKNPKQALDEATNDITQNIKILHPSQNDKKGD,glycan array binding signal (z-score),[1],2.56
same,glycan array binding signal (z-score),Neu5Ac(a2-8)Neu5Ac,-0.022
same,glycan array binding signal (z-score),[2],0.025
same,glycan array binding signal (z-score),[3],0.399
same,glycan array binding signal (z-score),[4],-0.097
same,glycan array binding signal (z-score),[5],0.287
same,glycan array binding signal (z-score),[6],-0.114
same,glycan array binding signal (z-score),[7],-0.202
same,glycan array binding signal (z-score),[8],-0.055
same,glycan array binding signal (z-score),[9],0.005
same,glycan array binding signal (z-score),[10],-0.098
same,glycan array binding signal (z-score),[11],-0.207
same,glycan array binding signal (z-score),[12],0.007
same,glycan array binding signal (z-score),[13],-0.191
same,glycan array binding signal (z-score),[14],-0.11
same,glycan array binding signal (z-score),Neu5Ac(b2-6)GalNAc,-0.045
same,glycan array binding signal (z-score),[15],-0.096
same,glycan array binding signal (z-score),[16],0.096
same,glycan array binding signal (z-score),[17],0.029
same,glycan array binding signal (z-score),[18],-0.053
same,glycan array binding signal (z-score),[19],-0.133
same,glycan array binding signal (z-score),Neu5Gc(a2-3)Gal(b1-4)Glc,-0.048
same,glycan array binding signal (z-score),[20],-0.058
same,glycan array binding signal (z-score),[21],0.091
same,glycan array binding signal (z-score),[22],0.044
same,glycan array binding signal (z-score),[23],-0.015
same,glycan array binding signal (z-score),Neu5Gc(a2-6)GalNAc,-0.029
same,glycan array binding signal (z-score),[24],-0.09
same,glycan array binding signal (z-score),[25],-0.059
same,glycan array binding signal (z-score),[26],-0.088
same,glycan array binding signal (z-score),[27],-0.066
same,glycan array binding signal (z-score),[28],-0.083
